Laboratory results as given in PMC6212790.
The other results are listed elsewhere or left out. At the low end of the ranking the order means little.

What follows are sequences tested against T1, GST-Rok-C97-191 (UniProt O34857) (assay: protein binding microarray). Details: Rok is a gene silencer of Bacillus subtilis; high values mean tight binding; most listed sequences are background and not binding sites; double strand, one strand shown.
T1 sequence: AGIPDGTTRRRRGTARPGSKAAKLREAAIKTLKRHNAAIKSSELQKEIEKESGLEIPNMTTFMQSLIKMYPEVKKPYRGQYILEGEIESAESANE
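Further: rank score from −0.5 (least bound) to 0.5 (best bound).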

Sequence | binding signal [E-score]
CGAGACAA | -0.00462
AAACTACA | 0.387
TACTCAAA | -0.00786
AGTTTGTC | 0.0866
GCCACAAC | -0.227
GATCCATC | -0.112
AATTGTAT | 0.235
CAGTTGCC | -0.243
CAAGAATC | 0.0803
CAAATTGG | -0.0834
CAAAACTC | 0.162
CATGATCG | -0.118
ATGTTGGG | 0.0852
TGACTAAA | 0.0396
CTTTCGCC | -0.0797
TCGTAAAA | 0.184
AGACGCAG | -0.17
CATTCCGC | -0.168
CCATGTCA | -0.0435
AGCTCAGC | -0.187
GGAGTCAC | -0.0785
GAGGTGAC | -0.223
CGGGTCGC | -0.173
ATACAATC | 0.175
ATTAGTCA | 0.267

Sequence | binding signal [E-score]
ATGACGAG | -0.0694
CTTCACTC | -0.166
ACGACGTA | -0.122
CCATTGAG | -0.0693
GTTACCCA | 0.0211
AATAGGGT | 0.0409
CGAGCCTC | -0.276
GACATATC | 0.122
AGCGTGGC | -0.312
ACCGTCCG | 0.0225
AGAGCGAC | -0.247
AGAAATGA | 0.0703
TAAAAAAA | 0.328
AAATAAAC | 0.155
AATTCCGT | -0.00528
CTCGGCCC | -0.364
GAACGGGC | -0.217
CATCGATG | 0.068
AATGATAT | 0.249
AGTGAGCC | -0.123
AAGAGGGA | -0.0544
CACGCATA | 0.0976
CCTCATGC | -0.169
CGAAGGTC | -0.245
GCGTTAAA | -0.218

Sequence | binding signal [E-score]
ACTAATCA | 0.133
AACTAGGT | 0.318
GTTAACGA | 0.0428
GTAGGTAA | 0.264
AGCGCCGG | -0.146
AAATCGAT | 0.073
AACCTAAC | -0.0809
ATGTGGAG | 0.102
AGCCCGCC | -0.233
AACCGGGT | -0.146
AGCAATAG | 0.244
GTCGACGA | -0.206
ACGTGCTA | 0.106
ACCCAGAG | -0.137
CCGTCTAA | -0.0284
CCGATTGC | 0.116
CAATATCC | -0.00246
CGTGTGAC | -0.206
TACCGCGA | 0.0284
AGCGATCG | -0.201
AGGTAAGA | 0.108
CTCTGTAA | 0.0493
ACCAGCGT | -0.127
AAATGAAA | 0.0941
AGCCTGGC | -0.293

Sequence | binding signal [E-score]
CAGCTCGG | -0.0345
GCCCGCAA | -0.245
AAGCTGTC | 0.0421
CTCATCCA | 0.00151
AATATTAT | 0.21
CTGTACGA | 0.094
CCTCTTAC | -0.0943
GCTAGAGA | 0.121
GGAGTAGA | 0.102
AGTCGATA | 0.212
AGATCTAG | 0.202
TATAAAGA | -0.131
ACAATCAC | -0.0201
ATAAGCTG | -0.0096
ACCATCTA | 0.31
ACAAGTAC | 0.25
TCAGAACA | -0.0454
CCAACTCA | -0.0447
GATACATA | 0.377
GCCAGGCA | -0.21
GCAGAGTA | -0.0358
AACAGGCC | -0.276
CGGTAATA | 0.315
AACGTAAA | 0.0617
ATCTGAAC | 0.0923

Sequence | binding signal [E-score]
GGACTTTA | -0.19
GGGCTTGA | -0.304
ACGTAAAG | 0.0169
GTGTCCCA | -0.165
AACGTAAG | -0.0867
ACTGCTTG | 0.117
CGTCGGCA | -0.336
AATGTGCC | 0.114
GCGAAAAA | 0.135
TCAGAAGA | -0.0615
ACTGGTTG | -0.0208
ACATATGT | 0.4
ATAGGCGG | -0.17
ACAAGTAG | 0.274
GGTGCTTA | -0.1
CATTTCCG | -0.0941
GCCGAGGA | -0.272
ACGCCGGC | -0.345
AACCTGCG | -0.0596
ACTAGCTA | 0.397
GCCCCAGC | -0.368
CTCGCCGC | -0.2
CATCCGGG | -0.117
GCCAAGAA | -0.0724
GCGCTTCC | -0.148

Sequence | binding signal [E-score]
TACAACCA | 0.0162
AGACTGCT | -0.066
GGCTGGCA | -0.299
CATATCCC | 0.0856
GCCGTAAA | -0.0195
CCAGAACC | -0.0982
CCGGCGTC | -0.273
ATAACCAT | 0.199
CATTCAGA | -0.0179
ATAGGCGC | -0.0965
GACGTAGA | 0.0341
CCAACTGG | -0.142
AATTAGCC | 0.0609
AAAAGGAA | -0.0215
ACAAGACC | -0.248
GCATTCAA | -0.0287
ATGTCCCC | -0.198
AAGTAATA | 0.29
AGGAAACC | -0.266
AGTAGGAT | 0.283
GAGATACC | 0.0658
AAAGCCTC | -0.162
GACCCTTA | -0.0728
CGCAACCA | -0.0628
CACCCTCC | -0.00354

Sequence | binding signal [E-score]
CGTTTCAC | -0.234
AGTGCGAG | -0.186
CCTATCTC | 0.0249
AAAGGCAG | -0.0965
AGTCTGAA | -0.139
CCAGCTGC | -0.0489
AGCAGTGC | -0.228
CACATCTA | 0.151
AGCGTGTC | -0.00288
AGTCGTAT | -0.0181
AACTCTTC | -0.0797
AAACTGCA | 0.0449
AGTACTGC | 0.129
AAGGATAC | -0.0403
ATACACGC | 0.216
GAACGGCA | -0.112
AGGGAGAT | -0.0598
AGTATTAG | 0.295
CAAGTTAA | 0.0265
CACGGGAC | -0.308
GTAGAATA | 0.305
CAGAATAG | 0.00183
CCAAGTTC | -0.0242
GTCAATCA | -0.125
ACTAATTG | 0.189

Sequence | binding signal [E-score]
ATATTACG | 0.174
CCCCAATC | -0.228
GACCATCC | -0.118
CACAGTCG | -0.1
ACCTCTCC | -0.177
AGTAAGAG | -0.16
ACAGTCCC | -0.126
GAGGATAC | -0.102
GTGCGTAA | 0.00713
AAGCGGAG | -0.174
CCATCAGG | -0.0317
ACGCGCTG | -0.118
AAAGCGTG | -0.172
ACATACTG | 0.15
ATTATGTG | 0.169
CCATGGGC | -0.255
AAGAGGAG | -0.144
CCCCGTTA | -0.201
ACAGCTAT | 0.172
GATTAACC | -0.127
GGGCGACA | -0.13
CCGGGCCA | -0.276
ATAGATTC | 0.34
CAGGCTGC | -0.206
ATTTGGGA | -0.159

Sequence | binding signal [E-score]
CGGATCCC | -0.0495
CCGCAGAA | -0.0471
GCCCATTA | -0.125
GGAGACTA | -0.021
CCGATTAG | 0.0111
CCTCGTTA | -0.00496
AGCAAAGG | -0.14
GTTGTACA | 0.25
CCCTGTCC | -0.115
TGTGAGAA | 0.235
AAGGCACC | -0.142
CGTATCTC | 0.111
ATGCTATG | 0.114
GGTGGGCA | -0.162
ACACCGAT | 0.0923
AAGCTATG | 0.0107
AGAGATGA | -0.0749
ATCACTCA | 0.0646
CAACCACA | 0.0325
CGCGTGGC | -0.276
CCATCACC | -0.16
GAACTCTC | 0.084
ACCAGCTC | -0.204
GAGCTGGC | -0.0572
ACCCGAAA | -0.00438

Sequence | binding signal [E-score]
CGTCCAGC | -0.122
CGATGAGA | 0.0868
AAAGCCTA | 0.0302
AGTTAGGA | 0.229
GACGCTGC | -0.153
CTTCTTCA | -0.143
AGGTAGCA | 0.147
ATCCAGGA | 0.0472
ATGGGTCG | -0.0474
ACCATATA | 0.196
GCCCCACA | -0.231
AGATGCCC | -0.206
CTGATCTC | 0.027
AAAGCTTC | -0.0436
CCGTCGGC | -0.185
AGGACTCC | -0.313
CCTGGCCG | -0.235
ATCATGAA | 0.128
GGCCCGTA | -0.0434
TCGCAAGA | 0.0127
ACCGGTAT | 0.253
AGATAATA | 0.267
CGTAGTAC | 0.186
AGTAACTC | 0.0388
CAAGTAGA | 0.303

Sequence | binding signal [E-score]
ATATGGAC | -0.0545
GGCCAGGA | -0.169
CAGGATCC | -0.151
ACTTCCGG | -0.139
GATGCATC | -0.0465
ACCGCACT | -0.0355
ACCCGCTA | 0.0179
CTTGGACC | -0.209
GAATATAA | 0.176
AACAAGCA | 0.0447
CAAAGATG | -0.242
ATTCAACC | -0.0626
GCCTTTCA | -0.292
ATTCCAGA | 0.142
CACAACAC | 0.0533
TCCTTGAA | -0.147
GGTGGGAC | -0.143
AGATGTGG | -0.141
ACAATGCG | 0.08
AGTTGGAT | 0.0705
TCGTACAA | 0.053
TCTAACCA | 0.0979
GCTATCGA | 0.102
CCGGTTGC | -0.337
GCACGGAA | 0.11

Sequence | binding signal [E-score]
ACCCCAAC | -0.0328
AAGGAGGG | -0.215
AACCCTTC | -0.0825
GCTGCGAA | -0.102
CCAGAATA | 0.123
GAAAATGC | 0.0717
GACGGATC | -0.132
AGGAGTGC | -0.137
ACTGCCGG | -0.0912
ACCCCGGT | -0.183
GGGTAGGA | -0.0141
AAGCATCA | 0.00544
GGATGAGA | 0.00888
ACTGTGCA | 0.0635
GCATGACC | -0.238
CCGTTTTC | -0.216
CTAGCCCA | -0.177
CTCGAGCA | -0.0442
CAGAAATC | -0.0459
GTCTGGAA | -0.244
GAAGGGAC | -0.267
ACAATGGC | 0.0354
CGGCTGAG | -0.0955
ACTACTGA | 0.269
GTAATAAC | 0.0936

Sequence | binding signal [E-score]
GGTTCGAC | -0.0794
AGCCTCGC | -0.208
AATAGAGG | 0.0621
CAGTTTGG | -0.165
GATGTATA | 0.285
TAACCCGA | -0.168
CGGAATTA | 0.178
ACTAAGAC | 0.0719
GCTAATGA | -0.097
AAATTATG | 0.224
AACAAGGC | -0.278
AAATAAGC | 0.159
CCCCTCTA | -0.202
GATGAGAC | -0.263
AAAGCGTT | 0.0551
CCTCTCCC | -0.348
TCGGCACA | -0.161
ACGGAAGC | -0.231
ATCAACTG | 0.0687
CTTGACAC | -0.0785
ATCCGGCG | -0.0701
CCCTAGCG | -0.135
AACTCTTG | -0.0959
ACGATCCT | -0.0661
CTCTTTTC | -0.0711

Sequence | binding signal [E-score]
GCATAAAA | 0.202
ATCCTTTG | -0.0225
CAAAATTA | 0.266
ATGCGTTC | -0.00129
GCCTAGAC | -0.242
GAGCCACA | -0.286
ATCACGAC | -0.026
CAACCAGA | -0.237
ATGCAGAC | -0.144
GACGCCCC | -0.273
AACGCTGC | -0.0555
TCAGTGCA | -0.0533
CCGTGGAC | -0.286
ACAGATAT | 0.185
TGACAGAA | -0.071
CAATGCCC | -0.253
CCAGCAAC | 0.11
AGCAACAA | 0.167
AAGCTTAG | 0.045
